In all, about 410,000 compounds went through this assay and about 6,400 (1.6%) were called active. This list was built around the results that the source calls inconclusive (neither active nor inactive); the mix of calls is not that of the screen. Calls follow the shape of the dose curve; as a rule, active = well fitted inhibition curve with a large enough effect; inconclusive = small, poorly fitted or top-dose-only effect; inactive = no such curve, though single readings can be large or run the other way. No potency is given beside an inconclusive call; the fits are too rough.
target: Glucagon-like peptide 1 receptor (Homo sapiens) (UniProt P43220); test: qHTS of GLP-1 Receptor Inverse Agonists (Inhibition Mode); details: HEK293 GLP-1R CRE-luciferase, luminescence, 24 h, GLP-1R form is constitutively active; series mostly up to 38.3 µM; also: nearly all actives have a fitted effect of over 55% in size
Summary of the method: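 HEK293 cells stably co-expressing constitutively active GLP-1R and a cAMP-responsive luciferase reporter were seeded in DMEM with 10% Nu serum, given compounds after 12 h, and incubated 24 h at 37 deg C. Luminescence was then read.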
Potency is read from the fitted curve at half-maximal effect; tags tell the direction and shape of the fitted curve.

UniProt P43220, sequence (P43220 whole entry, looked up): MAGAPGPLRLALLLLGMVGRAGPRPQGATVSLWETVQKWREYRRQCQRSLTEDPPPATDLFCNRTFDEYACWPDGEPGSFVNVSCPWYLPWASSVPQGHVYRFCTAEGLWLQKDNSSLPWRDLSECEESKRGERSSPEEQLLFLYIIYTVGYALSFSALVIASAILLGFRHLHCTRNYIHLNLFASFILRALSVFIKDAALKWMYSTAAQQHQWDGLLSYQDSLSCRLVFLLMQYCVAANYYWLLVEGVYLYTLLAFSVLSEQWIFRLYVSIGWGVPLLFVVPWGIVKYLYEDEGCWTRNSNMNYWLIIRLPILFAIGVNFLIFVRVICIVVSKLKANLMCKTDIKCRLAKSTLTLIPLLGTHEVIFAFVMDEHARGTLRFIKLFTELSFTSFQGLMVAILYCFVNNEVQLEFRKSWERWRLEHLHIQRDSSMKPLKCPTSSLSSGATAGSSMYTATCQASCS

Question: With COc1ccc(CCNC(=O)CCc2cn(Cc3ccc(C)cc3)c3ccccc23)cc1OC as the compound, how does the Potency read?
Answer: The Potency was inconclusive [inhibitor, single point].

Question: How did the Potency turn out when CCOc1ccc(C(=O)Nc2c(C(=O)N3CCC(N4CCCCC4)CC3)oc3ccccc23)cc1 was run?
Answer: The Potency was inconclusive [inhibitor, single point].

Question: For Cc1cccc(C)c1NC(=S)Nc1ccc(Cl)c(Cl)c1, which Potency is on record?
Answer: Its Potency is inconclusive [inhibitor, single point].

Question: OC(COC(c1ccc(Cl)cc1)c1ccc(Cl)cc1)CN1CCCC1 (stereo not given) was tested. Which Potency did it give?
Answer: The Potency was “inactive”.

Question: Which Potency does the source give for CCCCOc1nnc(-c2ccc(OCC)cc2)c2ccccc12 here?
Answer: Its Potency is “inactive”.

Question: Which Potency does the source give for Cc1nc(-c2ccccc2)sc1C1(C)CC(c2ccccc2F)=NO1 (stereo not given) here?
Answer: Its Potency is inconclusive [inhibitor, single point].

Question: Which Potency does the source give for O=C(CSc1nnc(-c2ccc(F)cc2)c2ccccc12)Nc1ccccc1 here?
Answer: The Potency was inconclusive [inhibitor, partial curve].

Question: For Cc1ccc(C)c(N2CCN(CCCNC(=O)Cn3cccc3C(=O)c3ccccc3C)CC2)c1, which Potency is on record?
Answer: The Potency was inconclusive [inhibitor, partial curve, poor fit].

Question: With Cc1ccccc1OC(C)C(=O)Nc1ccc2c(c1)OCCO2 (stereo not given) as the compound, how does the Potency read?
Answer: The Potency was inconclusive [inhibitor, single point].

Question: How did the Potency turn out when Cc1cc(C)cc(NC(=O)C(NS(=O)(=O)c2cccc3nsnc23)c2ccccc2)c1 (stereo not given) was run?
Answer: The Potency was inconclusive [inhibitor, partial curve, poor fit].

Question: With CC(=O)[C@H]1[C@H](CCc2ccccc2)NC(=O)N(Cc2ccccc2)[C@@H]1C as the compound, how does the Potency read?
Answer: Its Potency is inconclusive [inhibitor, partial curve, poor fit].

Question: How did the Potency turn out when O=C(CCCN1C(=O)/C(=C/c2ccccc2Cl)SC1=S)NCCCN1CCOCC1 was run?
Answer: Its Potency is inconclusive [inhibitor, full curve, poor fit].

Question: For COc1ccc2nc(NC(=O)c3ccoc3C)sc2c1, which Potency is on record?
Answer: Its Potency is “inactive”.

Question: For COc1ccc(C2c3[nH]c4ccccc4c3CCN2CCCn2cccn2)cc1C (stereo not given), which Potency is on record?
Answer: Its Potency is inconclusive [inhibitor, partial curve, poor fit].

Question: Which Potency does the source give for Cc1ccc(Cl)cc1N1CCN(C(=O)Cn2ncc3c([nH]c4ccccc43)c2=O)CC1 here?
Answer: The Potency was “inactive”.

Question: How did the Potency turn out when O=C(OCC(=O)N1CCN(C(=O)c2ccco2)CC1)c1cn(-c2ccccc2)nc1-c1ccccc1 was run?
Answer: The Potency was inconclusive [inhibitor, partial curve, poor fit].

Question: OC[C@@H]1CN(Cc2ccc(-c3ccccc3)cc2)C[C@H](n2cnc3c(Nc4ccccc4)ncnc32)O1 was tested. Which Potency did it give?
Answer: The Potency was active: 4.47 µM.

Question: For COc1ccc(SC[C@H](C)CN2CC[C@H](C)CCC2=O)cc1, which Potency is on record?
Answer: The Potency was inconclusive [inhibitor, single point].

Question: CCN(CC)CCCNC(=S)N1CCn2c(nc3ccccc32)C1 was tested. Which Potency did it give?
Answer: The Potency was inconclusive [inhibitor, partial curve, poor fit].

Question: Cn1nc(C(F)(F)F)cc1C(=O)Nc1ccc(-c2ccno2)cc1 was tested. Which Potency did it give?
Answer: Its Potency is inconclusive [inhibitor, single point].

Question: With CCC(CC)C(=O)N(C)c1c(C)nc2c(OCc3ccc(Cl)cc3)cccn12 as the compound, how does the Potency read?
Answer: Its Potency is inconclusive [inhibitor, partial curve].

Question: With CCOc1ccc(S(=O)(=O)N2CCCC(C(=O)NCc3cccnc3)C2)cc1Cl (stereo not given) as the compound, how does the Potency read?
Answer: The Potency was inconclusive [inhibitor, single point].

Question: COc1ccc(S(=O)(=O)N2c3cc(Cl)ccc3Oc3nc4ccccc4nc32)cc1 was tested. Which Potency did it give?
Answer: Its Potency is inconclusive [inhibitor, full curve, poor fit].

Question: How did the Potency turn out when COC(=O)N1CCc2c(sc(NC(=O)C3COc4ccccc4O3)c2C(N)=O)C1 (stereo not given) was run?
Answer: The Potency was “inactive”.

Question: COc1ccc(NC(=O)c2cc3ccccn3n2)cc1 was tested. Which Potency did it give?
Answer: The Potency was inconclusive [inhibitor, single point].

Question: How did the Potency turn out when CCN(CC)C(=S)NC(=O)c1cc(OC)c(OC)c(OC)c1 was run?
Answer: The Potency was inconclusive [inhibitor, single point].

Question: COc1ccccc1N(C(=O)c1snc(C(N)=O)c1N)C(C(=O)NCc1ccccc1)c1ccc(C)o1 (stereo not given) was tested. Which Potency did it give?
Answer: The Potency was inconclusive [inhibitor, single point].

Question: Which Potency does the source give for CCc1noc(C)c1C(=O)N(C)CC(=O)Nc1ccc(Cl)c(Cl)c1 here?
Answer: The Potency was inconclusive [inhibitor, single point].

Question: O=C(Nc1ccccc1)c1ccc[n+](Cc2ccc([N+](=O)[O-])cc2)c1 was tested. Which Potency did it give?
Answer: Its Potency is “inactive”.

Question: With OCCCc1nc2ccccc2n1CCc1ccccc1 as the compound, how does the Potency read?
Answer: Its Potency is “inactive”.

Question: How did the Potency turn out when COC(=O)c1c(-c2ccc(N(C)C)cc2)oc2c1C(OC)CCC2 (stereo not given) was run?
Answer: Its Potency is inconclusive [inhibitor, single point].

Question: Which Potency does the source give for C/C(=N\NC(=O)c1cccc(N/N=C(\C)c2cc(O)ccc2O)c1)c1cc(O)ccc1O here?
Answer: The Potency was inconclusive [inhibitor, single point].

Question: OC(c1cc(F)cc(Cl)c1)c1ncc(-c2ccccc2C(F)(F)F)[nH]1 (stereo not given) was tested. Which Potency did it give?
Answer: The Potency was inconclusive [inhibitor, single point].

Question: How did the Potency turn out when CCCCCCCCN1C(=O)[C@H](CC(=O)NCCCN2CCCC2=O)C[C@@]2(C(=O)OC)CC(C)(C)CC=C12 was run?
Answer: The Potency was inconclusive [inhibitor, single point].

Question: CC1Cc2ccccc2N1C(=S)NC(=O)C1(C)CC1(Cl)Cl (stereo not given) was tested. Which Potency did it give?
Answer: The Potency was inconclusive [inhibitor, partial curve, poor fit].

Question: Which Potency does the source give for CN(C(=O)COC(=O)c1cc2c(s1)CCCCC2)c1ccccc1 here?
Answer: Its Potency is inconclusive [inhibitor, single point].

Question: With CC1(C)CC(N2CCCC2)=CC(=[N+]2CCCCC2)C1 as the compound, how does the Potency read?
Answer: Its Potency is inconclusive [inhibitor, single point].

Question: How did the Potency turn out when COCCn1c(SCC(=O)NC(=O)NC2CCCCC2)nc2ccccc2c1=O was run?
Answer: Its Potency is inconclusive [inhibitor, single point].

Question: Which Potency does the source give for O=[N+]([O-])c1ccc(Oc2ccc(S(=O)(=O)Nc3ccccc3)cc2)cc1 here?
Answer: Its Potency is inconclusive [inhibitor, single point].

Question: Which Potency does the source give for CC(C)[C@H](NC(=O)c1ccccc1)C(=O)OCC(=O)NCC1CCCO1 (stereo not given in full) here?
Answer: The Potency was “inactive”.

— PubChem BioAssay AID624417 (National Center for Advancing Translational Sciences (NCATS), 2012)
